The other results are listed elsewhere or left out.
T1: UNK ZnF1-6 (called full-length) (human, UniProt Q9C0B0 30-357)
T1 sequence: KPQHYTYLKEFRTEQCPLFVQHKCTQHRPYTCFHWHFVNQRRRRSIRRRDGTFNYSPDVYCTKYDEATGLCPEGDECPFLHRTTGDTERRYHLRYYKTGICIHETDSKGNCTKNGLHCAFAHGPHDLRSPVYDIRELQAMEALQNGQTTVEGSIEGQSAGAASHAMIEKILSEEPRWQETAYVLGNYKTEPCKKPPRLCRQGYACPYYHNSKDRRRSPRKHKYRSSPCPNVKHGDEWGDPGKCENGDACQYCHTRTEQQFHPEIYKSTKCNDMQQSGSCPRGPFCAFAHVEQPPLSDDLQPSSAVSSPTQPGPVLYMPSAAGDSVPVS

B1: chr3:125012942:125013043:-|CDS|ENSG00000173706|msi1|total|mutant (ssRNA)
RNA: GGGAGUUCUACAGUCCGACGAUCGCCUCUUAUGACCACUCCUGGCACCCUGUCAAGCACAGCAUCUCUGGUCACUGGCCCUACCGCCGUACAGACUACAGCUGGAAAACAGCUCUCGCUGACCCAUCCUGAAAUACCCGUUCCCAACAGAGGAUUGAGCAUCA
B2: chr10:29523788:29523889:-|CDS|ENSG00000197321|unk|total|mutant (ssRNA)
RNA: GGGAGUUCUACAGUCCGACGAUCAAUGCAAGUGCCACUGACUAUAAGUUUUCUUCUUCAACCGAAAAUUCGGACUCUCCAGUCCGAAGCAUUCUGAAAUCGCAAGCUUGGCAGCCUUUGGCCGAGGGCCGCGAGAACAAGGGACAACAGAGGAUUGAGCAUCA
B3: chr15:43232589:43233190:-|three_prime_utr|ENSG00000104055|control|control|control (ssRNA)
RNA: GGGAGUUCUACAGUCCGACGAUCGCUCCAGCAAGAGCCACAGAGGGGAUGACGUGUUCAUUUUCUGUCUCUCCUGACUCCACUAGAAAUUUAAGCUCCAUGAGGGCAAAGACUUUGCUUUGUUUACUACCCCUAUACUCAGAACAACAGAGGAUUGAGCAUCA
B4: ENSG00000198589:be:win_1151|CDS|ENSG00000198589|bound_else_gene|NA|bound_elsewhere_windowed (ssRNA)
RNA: GGGAGUUCUACAGUCCGACGAUCUGGGAUACAAGGGUACAUUUAAAUUCAAAGCAGAAAGCGACCUUUUCCUUGCUGAGCAUCACAAACUUUUAUUGUACGAUGGGAAACUCUCUAGUGCCAUUGCAUUCACGUACAAUCCACCAACAGAGGAUUGAGCAUCA
B5: chr10:103999120:103999255:+|CDS|ENSG00000065613|unk|total|mutant (ssRNA)
RNA: GGGAGUUCUACAGUCCGACGAUCAUCUAAGGACAGACCCUAUGACUACAAAGCUGAUGUUUGGUCCCUGGGUAUCACUUUAACCGAAAUGGCUGAGACCGAACCACCUCAUCAUGAAUUAAAUCCAAUGCGAGUGCUGCUAAACAACAGAGGAUUGAGCAUCA
B6: chr7:115017934:115018035:+|3pUTR|ENSG00000135272|unk|total|mutant (ssRNA)
RNA: GGGAGUUCUACAGUCCGACGAUCUGAGAUGAAACGCCGUUUCCCGUUAUAUCAUUACUUAAAGGGCUUAAAAAGAAAAAACUCCGCAAACUUUUGAAUCUUUCUUUUAUUGCUAUUUACACAUACAUACACACAUACAAAACCCAACAGAGGAUUGAGCAUCA
B7: chr1:90030187:90030288:+|3pUTR|ENSG00000162664|unk|FALSE|unique (ssRNA)
RNA: GGGAGUUCUACAGUCCGACGAUCACCCAGUUCAAGUCAUGAUAAUUUCUUGUUAACUAAUCUUGAUUCCACCCUUACCAUGAUAGAUUCAGUUUUCUACACAAGUAUAAGCUUUUAAAAAUGUAAUUCAGAUGAUGUUAAUCUCAACAGAGGAUUGAGCAUCA
B8: chr2:200815332:200815484:+|CDS|ENSG00000082153|unk|FALSE|bound_elsewhere (ssRNA)
RNA: GGGAGUUCUACAGUCCGACGAUCUCAGUUUCAAGACUGUAUUAUUCAAGGCUUAACUGAAACCGGUACUGAUUUGGAAGCAGUAGCUAAGUUUCUUGAUGCUUCUGGAGCAAAACUUGAUUACCGUCGAUAUGCAGAAACACUCAACAGAGGAUUGAGCAUCA
B9: chr20:2117184:2117286:+|CDS|ENSG00000125834|unk|total|mutant (ssRNA)
RNA: GGGAGUUCUACAGUCCGACGAUCGCUCCUGGGGACCUACAUUAAACAGGGGACUGAGAUCGUCCCUGUUGGUGAGGCGCUGCCCGAAAACCCAAAGAUGGAGUUGCACAUCCCCCAAAAACGCAGGACUUCCAUGUCUGAGGGCAACAGAGGAUUGAGCAUCA
B10: chr14:31448131:31448454:-|CDS|ENSG00000129480|control|control|control (ssRNA)
RNA: GGGAGUUCUACAGUCCGACGAUCUGUGACUCUAUGUGAAAAAGAAGUAGCUGCUAAUAGCAAGUGUGCUGAAGCUAGGGUUGUAGUGGAACAUGGCACUUAUGGGAACAGGCAGGUGUUAAAGCUGGACACCAACGGACCAUUCAACAGAGGAUUGAGCAUCA
B11: ENSG00000044574:stop:overlap|stop_codon|ENSG00000044574|stop_codon|NA|stop_codon (ssRNA)
RNA: GGGAGUUCUACAGUCCGACGAUCAUGGAAGUGCAGGCCCUCCCCCAACUGGUGAAGAGGAUACAGCAGAAAAAGAUGAGUUGUAGACACUGAUCUGCUAGUGCUGUAAUAUUGUAAAUACUGGACUCAGGAACUUUUGUUAGGCAACAGAGGAUUGAGCAUCA
B12: chr6:134965076:134965177:-|3pUTR|ENSG00000112339|unk|FALSE|unique (ssRNA)
RNA: GGGAGUUCUACAGUCCGACGAUCAAAGGAACAAUGUGCAAUUGAUAUGUUUUUAGAUGAGAGAGAAAAAUUAAAGCUAAAAUUAGCUGCAAAGAAGUAUUAAUAAUCACCUCUGCAAAAAUUCUAAGUUGCCAACUGGCAAAGCAACAGAGGAUUGAGCAUCA
B13: chr1:158765746:158766682:-|CDS|ENSG00000197403|control|control|control (ssRNA)
RNA: GGGAGUUCUACAGUCCGACGAUCUUGCACUGAUACGUCUAUAAAUGUCCUAGUAGAUUUUGUUAUAAAUUCCUGCAAGAUCCUAGCCACCUUCCUGCUGAUCCUCUGCUCCUAUGUGCAGAUCAUCUGCACAGUGCUCAGAAUCAACAGAGGAUUGAGCAUCA
B14: ENSG00000198589:be:win_7801|CDS|ENSG00000198589|bound_else_gene|NA|bound_elsewhere_windowed (ssRNA)
RNA: GGGAGUUCUACAGUCCGACGAUCGUCUGUGGCUUCUGGGAUAAAAGUUUCAGAGUCUAUUCUACAGACACAGGAAGAUUGAUCCAAGUGGUGUUUGGCCAUUGGGAUGUCGUCACUUGCCUUGCUCGUUCUGAGUCAUAUAUUCAACAGAGGAUUGAGCAUCA

Molecular target: T1, UNK ZnF1-6 (called full-length)
Test: nsRBNS (natural sequence RNA bind-n-seq); RBNS binding buffer (assumed for nsRBNS): 25 mM Tris pH 7.5, 150 mM KCl, 3 mM MgCl2, 0.01% Triton X-100, 500 ug/ml BSA, 20 U/ml SUPERase-In, 4 C; UNK is unkempt and MSI1 is Musashi-1; names of the RNAs are library labels; protein concentration not given here; high values mean tight binding

| Binder | binding signal [enrichment R] |
| --- | --- |
| B1 | 0.682 |
| B2 | 0.51 |
| B3 | 1.64 |
| B4 | 0.389 |
| B5 | 0.475 |
| B6 | 1.38 |
| B7 | 0.513 |
| B8 | 0.189 |
| B9 | 1.01 |
| B10 | 0.612 |
| B11 | 1.08 |
| B12 | 0.714 |
| B13 | 0.543 |
| B14 | 0.431 |

— paper PMC12136788
